# PubChem BioAssay (Tox21)
# “And” between values parts separate entries of the source, which are not always exact repeats. Equal entries are not always repeated. More than one record can exist for a structure, and the calls need not agree. The source made the active and inactive calls. Unless noted, calls follow the shape of the dose curve; as a rule, active = well fitted curve in the direction sought with a large enough effect in the repeat runs; inconclusive = weak or mixed curves; inactive = no such curve, though single readings can be large; an effect the other way counts as inactive or inconclusive.
# Tests used:
# [1] = molecular target: Androgen receptor (Homo sapiens) (UniProt P10275); assay: qHTS assay to identify small molecule antagonists of the androgen receptor (AR) signaling pathway (AID 743035; active = well fitted inhibition curve with a large enough effect in the signal ratio in the repeat runs, not every such curve was filed as active; inconclusive = weak or mixed curves, or effect the other way; inactive = no such curve, though single readings can be large or run the other way; the % refers to the signal ratio; as to activity change, negative = inhibition: % is scaled to controls: 0 for no effect and ±100 for the full control effect); conditions: HEK293 AR-UAS-bla, R1881-stimulated, beta-lactamase FRET, 16 h; activity change, negative = inhibition: at 58.5 µM (top of the series) unless noted
# UniProt P10275, sequence (P10275 whole entry, looked up): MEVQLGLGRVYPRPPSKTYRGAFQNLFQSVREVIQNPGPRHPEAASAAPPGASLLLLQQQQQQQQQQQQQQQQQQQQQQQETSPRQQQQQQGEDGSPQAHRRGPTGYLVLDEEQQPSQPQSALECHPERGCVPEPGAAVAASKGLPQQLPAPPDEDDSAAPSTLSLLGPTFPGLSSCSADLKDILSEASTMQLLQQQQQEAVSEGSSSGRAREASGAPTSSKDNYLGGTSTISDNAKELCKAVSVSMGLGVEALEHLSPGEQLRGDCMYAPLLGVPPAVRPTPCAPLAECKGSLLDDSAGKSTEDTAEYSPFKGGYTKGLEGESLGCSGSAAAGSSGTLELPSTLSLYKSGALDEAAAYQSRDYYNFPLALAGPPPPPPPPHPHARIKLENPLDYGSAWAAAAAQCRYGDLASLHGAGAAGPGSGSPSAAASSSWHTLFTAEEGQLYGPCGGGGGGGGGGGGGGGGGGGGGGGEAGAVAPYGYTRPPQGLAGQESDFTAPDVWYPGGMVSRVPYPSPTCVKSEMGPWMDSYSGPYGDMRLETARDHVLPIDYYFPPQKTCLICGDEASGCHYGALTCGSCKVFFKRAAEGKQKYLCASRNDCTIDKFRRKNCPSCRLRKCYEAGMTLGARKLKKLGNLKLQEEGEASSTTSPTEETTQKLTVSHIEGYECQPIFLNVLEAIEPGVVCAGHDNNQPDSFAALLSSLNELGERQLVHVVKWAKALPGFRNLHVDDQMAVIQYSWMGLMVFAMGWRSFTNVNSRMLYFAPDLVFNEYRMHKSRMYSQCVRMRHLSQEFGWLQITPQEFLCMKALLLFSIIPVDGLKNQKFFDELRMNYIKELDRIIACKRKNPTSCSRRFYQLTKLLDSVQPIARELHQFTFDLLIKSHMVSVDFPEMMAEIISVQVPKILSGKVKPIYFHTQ
# Method in brief: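 Cell line: GeneBLAzer AR-UAS-bla GripTite (HEK293). Stimulus: R1881 added after compound. Exposure: 16 h, 37C, 5% CO2. Readout: LiveBLAzer B/G FRET fluorescence after 2 h at room temperature.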
# [2] = qHTS assay to identify small molecule antagonists of the androgen receptor (AR) signaling pathway using the MDA cell line - cell viability counter screen (AID 743041; also: nearly all actives have a fitted effect of over 45% in size); conditions: MDA-kb2 viability, CellTiter-Fluor, 16 h, cells co-treated with R1881 androgen agonist; viability change, negative = cytotoxic: at 70.3 µM (top of the series) unless noted
# Method in brief: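 MDA-kb2 AR-luc cells (MMTV-luciferase, AR/GR responsive) treated with compounds plus R1881 agonist for 16 h at 37C. CellTiter-Fluor added at 15.5 h; fluorescence read after 30 min in the same wells.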
# [3] = molecular target: Androgen receptor (Homo sapiens) (UniProt P10275); assay: qHTS assay to identify small molecule antagonists of the androgen receptor (AR) signaling pathway using the MDA cell line (AID 743042; also: nearly all actives have a fitted effect of over 55% in size)
# Method in brief: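 MDA-kb2 breast carcinoma cells carrying MMTV-luciferase (AR/GR responsive) were co-treated with compounds and the agonist R1881 for 16 h at 37C. Inhibition read as ONE-Glo luminescence; CellTiter-Fluor fluorescence measured in parallel for cytotoxicity.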
# [4] = qHTS assay to identify small molecule antagonists of the thyroid receptor (TR) signaling pathway - cell viability counter screen (AID 743064); conditions: GH3.TRE-Luc viability, CellTiter-Fluor, 24 h; activity change, negative = cytotoxic: at 70.3 µM (top of the series); also: nearly all actives have a fitted effect of over 50% in size
# Method in brief: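 Compounds were tested on GH3.TRE-Luc cells in the presence of T3 at 1 nM final. Following 23.5 h at 37 °C, cell viability was quantified by CellTiter-Fluor.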
# [5] = qHTS assay to identify small molecule antagonists of the thyroid receptor (TR) signaling pathway (AID 743065); also: nearly all actives have a fitted effect of over 55% in size
# Method in brief: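 GH3.TRE-Luc rat pituitary cells (two TREs driving luciferase) were dosed with compound, then stimulated with 1 nM T3 (final) for 23.5 h at 37 C. ONE-Glo luminescence was the read-out, with CellTiter-Fluor fluorescence as the cytotoxicity counter-screen.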
# [6] = tested on: thyroid hormone receptor (rat, GH3 cells); assay: qHTS assay to identify small molecule agonists of the thyroid receptor (TR) signaling pathway (AID 743066; calls by dose curve; as to activation: % is scaled to controls: 0 for no effect and ±100 for the full control effect); conditions: GH3.TRE-Luc cells, TR agonist luciferase, 24 h
# [7] = qHTS assay to identify small molecule antagonists of the estrogen receptor alpha (ER-alpha) signaling pathway - cell viability counter screen (AID 743074; calls by dose curve;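 also: HEK293 cells carrying ER-alpha-UAS-bla reporter stimulated with 17beta-estradiol; nearly all actives have a fitted effect of over 45% in size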)
# Aromatase (Homo sapiens) = Aromatase (Homo sapiens) (UniProt P11511); assay: qHTS assay to identify aromatase inhibitors (AID 743083); also: nearly all actives have a fitted effect of over 55% in size
# UniProt P11511, sequence (P11511 whole entry, looked up): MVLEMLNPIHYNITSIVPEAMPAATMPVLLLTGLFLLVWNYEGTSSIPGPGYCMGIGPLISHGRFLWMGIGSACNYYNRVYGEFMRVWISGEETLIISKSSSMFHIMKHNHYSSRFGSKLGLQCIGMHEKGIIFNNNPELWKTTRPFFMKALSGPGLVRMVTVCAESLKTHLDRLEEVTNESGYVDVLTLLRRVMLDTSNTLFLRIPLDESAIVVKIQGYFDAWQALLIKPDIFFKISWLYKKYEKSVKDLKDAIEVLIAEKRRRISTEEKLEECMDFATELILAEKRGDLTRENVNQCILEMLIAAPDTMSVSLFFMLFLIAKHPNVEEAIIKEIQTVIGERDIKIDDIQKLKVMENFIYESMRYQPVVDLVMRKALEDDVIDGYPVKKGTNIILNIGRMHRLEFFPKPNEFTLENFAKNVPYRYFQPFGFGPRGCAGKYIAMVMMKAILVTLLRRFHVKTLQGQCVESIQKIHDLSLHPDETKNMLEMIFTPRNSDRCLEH
# [8] = qHTS assay to identify aromatase inhibitors - cell viability counter screen (AID 743084);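 also: cells stimulated with testosterone during compound exposure; nearly all actives have a fitted effect of over 55% in size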
# [9] = molecular target: Peroxisome proliferator-activated receptor gamma (Homo sapiens) (UniProt P37231); assay: qHTS assay to identify small molecule agonists of the peroxisome proliferator-activated receptor gamma (PPARg) signaling pathway (AID 743094; active = well fitted activation curve with a large enough effect in the signal ratio in the repeat runs, not every such curve was filed as active; inconclusive = weak or mixed curves, or effect the other way; inactive = no such curve, though single readings can be large or run the other way; the % refers to the signal ratio; as to activation: % is scaled to controls: 0 for no effect and ±100 for the full control effect); conditions: HEK293H PPARg-UAS-bla, beta-lactamase FRET ratio, 17 h; activation: at 57 µM (top of the series) unless noted
# UniProt P37231, sequence (P37231 whole entry, looked up): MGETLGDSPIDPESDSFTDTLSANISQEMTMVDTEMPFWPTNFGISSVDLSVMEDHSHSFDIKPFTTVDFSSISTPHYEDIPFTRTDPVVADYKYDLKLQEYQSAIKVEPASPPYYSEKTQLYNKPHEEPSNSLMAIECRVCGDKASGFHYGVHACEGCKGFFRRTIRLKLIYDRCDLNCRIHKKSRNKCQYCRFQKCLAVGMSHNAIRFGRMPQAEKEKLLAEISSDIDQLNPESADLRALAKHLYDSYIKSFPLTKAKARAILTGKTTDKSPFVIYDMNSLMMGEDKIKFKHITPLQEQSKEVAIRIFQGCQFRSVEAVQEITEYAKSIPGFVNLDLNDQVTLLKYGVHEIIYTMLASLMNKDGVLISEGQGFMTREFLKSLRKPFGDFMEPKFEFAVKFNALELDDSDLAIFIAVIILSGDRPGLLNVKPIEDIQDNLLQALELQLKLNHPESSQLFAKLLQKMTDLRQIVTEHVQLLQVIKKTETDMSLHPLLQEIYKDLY
# Method in brief: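 Stably transfected HEK293H cells (GeneBLAzer PPARg UAS-bla) were incubated with test substances for 17 h at 37C after a 5 h pre-incubation; beta-lactamase activity was then detected by FRET substrate fluorescence.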
# [10] = molecular target: Peroxisome proliferator-activated receptor gamma (Homo sapiens) (UniProt P37231); assay: qHTS assay to identify small molecule antagonists of the peroxisome proliferator-activated receptor gamma (PPARg) signaling pathway (AID 743191; calls by dose curve; also: nearly all actives have a fitted effect of over 30% in size); conditions: HEK293H PPARg-UAS-bla, beta-lactamase ratio, antagonist, 17 h; ratio activity, negative = inhibition: at 62.6 µM (top of the series) unless noted
# Method in brief: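 GeneBLAzer PPARg UAS-bla HEK293H cells, 5 h post-plating, exposed to compounds 17 h at 37C. LiveBLAzer B/G FRET substrate added for 1 h at room temperature; beta-lactamase reporter read by fluorescence intensity.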
# [11] = molecular target: Androgen receptor (Homo sapiens) (UniProt P10275); assay: qHTS assay to identify small molecule agonists of the androgen receptor (AR) signaling pathway (AID 743036; active = well fitted activation curve with a large enough effect in the signal ratio in the repeat runs, with a control signal flat, not every such curve was filed as active; inconclusive = weak or mixed curves, or effect the other way; inactive = no such curve, though single readings can be large or run the other way; the % refers to the signal ratio); conditions: HEK293 AR-UAS-bla GripTite, beta-lactamase FRET ratio, 16 h; activation: at 62.4 µM (top of the series) unless noted
# Method in brief: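 Beta-lactamase under UAS control, stably integrated in HEK293 GripTite cells, reports receptor activation. After 16 h compound treatment, cells received FRET substrate for 2 h at room temperature before fluorescence reading.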
# [12] = molecular target: Estrogen receptor (Homo sapiens) (UniProt P03372); assay: qHTS assay to identify small molecule antagonists of the estrogen receptor alpha (ER-alpha) signaling pathway (AID 743069; active = well fitted curve in the direction sought with a large enough effect in the signal ratio in the repeat runs, not every such curve was filed as active; inconclusive = weak or mixed curves, or effect the other way; inactive = no such curve, though single readings can be large or run the other way; the % refers to the signal ratio); conditions: HEK293 ER-alpha-UAS-bla, beta-lactamase ratio, antagonist mode; activity, negative = inhibition: at 69.4 µM (top of the series)
# UniProt P03372, sequence (P03372 whole entry, looked up): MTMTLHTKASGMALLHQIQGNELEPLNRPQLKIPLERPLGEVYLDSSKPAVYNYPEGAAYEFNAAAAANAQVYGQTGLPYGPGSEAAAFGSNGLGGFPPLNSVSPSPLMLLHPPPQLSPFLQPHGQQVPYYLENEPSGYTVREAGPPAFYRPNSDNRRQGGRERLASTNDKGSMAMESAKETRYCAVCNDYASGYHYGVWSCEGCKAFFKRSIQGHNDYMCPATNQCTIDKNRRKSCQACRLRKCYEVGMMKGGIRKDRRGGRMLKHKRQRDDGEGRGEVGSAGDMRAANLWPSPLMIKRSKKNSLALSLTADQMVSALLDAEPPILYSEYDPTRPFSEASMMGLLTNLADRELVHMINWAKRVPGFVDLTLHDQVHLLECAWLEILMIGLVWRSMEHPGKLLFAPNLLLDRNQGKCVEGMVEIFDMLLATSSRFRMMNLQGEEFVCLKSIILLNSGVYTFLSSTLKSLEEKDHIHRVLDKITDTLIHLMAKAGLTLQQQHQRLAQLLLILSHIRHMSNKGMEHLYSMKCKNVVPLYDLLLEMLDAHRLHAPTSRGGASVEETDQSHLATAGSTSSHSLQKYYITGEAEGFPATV
# Method in brief: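 HEK293 ER-alpha-UAS-bla GripTite cells, held overnight in 2% charcoal-stripped FBS, 5,000 cells/well, preincubated 4 h, then compound plus 17beta-estradiol for 18 h at 37C. Beta-lactamase read by LiveBLAzer B/G FRET substrate, 2 h at room temperature.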
# [13] = molecular target: Estrogen receptor (Homo sapiens) (UniProt P03372); assay: qHTS assay to identify small molecule agonists of the estrogen receptor alpha (ER-alpha) signaling pathway using the BG1 cell line (AID 743079); conditions: BG1Luc4E2 cells, ERE-luciferase agonist, 22 h; activation: at 70.3 µM (top of the series) unless noted; also: nearly all actives have a fitted effect of over 20% in size; as to activation: % is scaled to controls: 0 for no effect and ±100 for the full control effect
# [14] = qHTS assay to identify small molecule antagonists of the estrogen receptor alpha (ER-alpha) signaling pathway using the BG1 cell line (AID 743080; calls by dose curve;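 also: BG1 cells stimulated with 17beta-estradiol alongside compound; nearly all actives have a fitted effect of over 25% in size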); conditions: BG1Luc4E2 ERE-luciferase antagonist mode, luminescence; activity change, negative = inhibition: at 70.3 µM (top of the series) unless noted
# Method in brief: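 BG1-Luc-4E2 cells (endogenous full-length ER-alpha, stable 4×ERE-luciferase) were starved 5 days in phenol-red-free medium with 10% charcoal-stripped FBS, plated 24 h, then given compound plus 17beta-estradiol for 21.5 h at 37 C; ONE-Glo luminescence read after 30 min.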
# [15] = qHTS assay to identify small molecule antagonists of the estrogen receptor alpha (ER-alpha) signaling pathway using the BG1 cell line - cell viability counter screen (AID 743081);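 also: compound given together with 17beta-estradiol as the ER stimulus; nearly all actives have a fitted effect of over 45% in size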
# [16] = molecular target: Aryl hydrocarbon receptor (Homo sapiens) (UniProt P35869); assay: qHTS assay to identify small molecule that activate the aryl hydrocarbon receptor (AhR) signaling pathway (AID 743085); also: nearly all actives have a fitted effect of over 15% in size
# UniProt P35869, sequence (P35869 whole entry, looked up): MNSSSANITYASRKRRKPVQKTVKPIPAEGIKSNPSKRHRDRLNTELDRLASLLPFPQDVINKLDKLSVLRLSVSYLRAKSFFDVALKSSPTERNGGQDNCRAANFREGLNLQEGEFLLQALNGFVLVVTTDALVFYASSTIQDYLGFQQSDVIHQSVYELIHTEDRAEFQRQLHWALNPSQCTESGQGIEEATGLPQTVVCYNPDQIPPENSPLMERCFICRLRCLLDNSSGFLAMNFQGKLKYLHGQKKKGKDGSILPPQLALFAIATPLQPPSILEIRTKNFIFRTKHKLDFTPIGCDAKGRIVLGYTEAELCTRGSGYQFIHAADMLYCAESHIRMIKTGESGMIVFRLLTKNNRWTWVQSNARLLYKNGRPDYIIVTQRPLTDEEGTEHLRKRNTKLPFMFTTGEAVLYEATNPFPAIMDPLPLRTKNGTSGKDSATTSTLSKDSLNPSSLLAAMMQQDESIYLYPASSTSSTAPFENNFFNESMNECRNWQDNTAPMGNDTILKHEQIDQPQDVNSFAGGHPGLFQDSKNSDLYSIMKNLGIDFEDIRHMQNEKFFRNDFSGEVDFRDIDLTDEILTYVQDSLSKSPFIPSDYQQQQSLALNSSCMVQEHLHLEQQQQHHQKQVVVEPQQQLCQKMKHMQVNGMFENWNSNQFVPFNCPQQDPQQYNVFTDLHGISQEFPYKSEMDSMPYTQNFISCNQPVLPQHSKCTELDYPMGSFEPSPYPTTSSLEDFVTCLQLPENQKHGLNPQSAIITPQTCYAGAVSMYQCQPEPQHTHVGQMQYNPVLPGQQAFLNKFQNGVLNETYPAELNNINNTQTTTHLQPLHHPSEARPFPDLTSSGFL
# Method in brief: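 24 h compound exposure, 37C, HepG2-derived HG2L7.5c1 cells with DRE-responsive luciferase. Readouts: fluorescence viability, then luminescence at room temperature after 30 min.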
# [17] = qHTS assay to identify small molecule that activate the aryl hydrocarbon receptor (AhR) signaling pathway - cell viability counter screen (AID 743086); also: nearly all actives have a fitted effect of over 45% in size
# Method in brief: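 HepG2-AhR-luc (HG2L7.5c1) cells, 4000/well, treated 24 h at 37 C with compound; viability measured as CellTiter-Fluor fluorescence after 30 min in the same wells as the luciferase read.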
# [18] = molecular target: Estrogen receptor (Homo sapiens) (UniProt P03372); assay: qHTS assay to identify small molecule agonists of the estrogen receptor alpha (ER-alpha) signaling pathway (AID 743075; calls by dose curve); conditions: HEK293 ER-alpha-UAS-bla, beta-lactamase FRET ratio, 18 h; activation: at 70.1 µM (top of the series)
# [19] = activation: at 83.9 µM (top of the series) unless noted
# Potency is read from the fitted curve at half-maximal effect; tags tell the direction and shape of the fitted curve or compound fluorescence and quenching.
smiles,measurement,setting,value
Oc1ccc(Cl)cc1Cc1ccccc1,"activity change, negative = inhibition",[1],inconclusive: -55.6%
same,Potency,[2],inconclusive: 68.6 µM [cytotoxic] and inconclusive: 61.9 µM [cytotoxic]
same,Potency,[3],inconclusive: 34.8 µM [inhibitor]
same,Potency,[4],"inconclusive: 26.6 µM [cytotoxic, partial curve, poor fit] and active: 48.6 µM and active: 36.7 µM"
same,Potency,[5],"inconclusive: 33.5 µM [inhibitor, single point]"
same,Potency,[6]; [19],"inconclusive: 27.3 µM [inhibitor, partial curve, poor fit]"
same,activation,[6]; [19],inconclusive: -8.97% [phenotype inactive]
same,activation,[6]; at 95.2 µM (top of the series),inactive: -11.6%
same,Potency,[7],active: 49 µM and active: 12.4 µM
same,Potency,Aromatase (Homo sapiens),active: 27.3 µM and active: 30.9 µM
same,Potency,[8],active: 30.6 µM and active: 49.2 µM
same,Potency,[9],"inconclusive: 0.14 µM [inhibitor, partial curve, poor fit]"
same,activation,[9],inconclusive: -12.4%
same,Potency,[10],"inconclusive: 21.9 µM [inhibitor, partial curve, poor fit] and inconclusive: 15.7 µM and inconclusive: 42.2 µM [inhibitor, partial curve, poor fit]"
O=S1(=O)OC(c2cc(Br)c(O)c(Br)c2)(c2cc(Br)c(O)c(Br)c2)c2ccccc21,"activity change, negative = inhibition",[1],inconclusive: 10.8%
same,Potency,[11],"inconclusive: 0.179 µM [activator, single point]"
same,Potency,[3],"inconclusive: 25 µM [inhibitor, partial curve]"
same,Potency,[4],active: 49.9 µM
same,Potency,[12],"inconclusive: 28.3 µM [activator, partial curve]"
same,Potency,[7],"inconclusive: 44.9 µM [cytotoxic, single point]"
same,activation,[13],inconclusive: -22.5% [activator]
same,Potency,[14],"inconclusive: 7.91 µM [falling, full curve]"
same,Potency,[15],active: 22.3 µM
same,Potency,[9],"inconclusive: 10 µM [falling, partial curve, poor fit]"
CCOP(=O)(OCC)Oc1nc(Cl)c(Cl)cc1Cl,Potency,[1],"inconclusive: 19.4 µM [rising, partial curve]"
same,Potency,[11],"inconclusive: 1.94 µM [rising, full curve, poor fit]"
same,Potency,[4],active: 60.8 µM
same,Potency,[12],"inconclusive: 1.94 µM [inhibitor, full curve]"
same,Potency,[7],"inconclusive: 2.74 µM [cytotoxic, full curve]"
same,Potency,[13],"inconclusive: 76.5 µM [inhibitor, single point]"
same,Potency,[14],active: 48.3 µM
same,Potency,[8],"inconclusive: 60.8 µM [cytotoxic, partial curve, poor fit]"
same,Potency,[16],"inconclusive: 15.3 µM [activator, single point]"
same,Potency,[17],"inconclusive: 19.2 µM [rising, full curve, poor fit]"
same,Potency,[10],active: 1.37 µM
O=C1c2ccccc2C(=O)C1C(=O)C(c1ccccc1)c1ccc(Cl)cc1 (stereo not drawn),Potency,[1],inconclusive: 15.5 µM
same,Potency,[11],inactive
same,Potency,[4],active: 27.3 µM
same,Potency,[12],active: 5.49 µM [inconclusive]
same,Potency,[7],active: 43.6 µM
same,Potency,[13],inactive
same,Potency,[14],"inconclusive: 54.5 µM [falling, partial curve]"
same,Potency,[15],"inconclusive: 54.5 µM [cytotoxic, partial curve]"
same,Potency,[8],"inconclusive: 68.6 µM [cytotoxic, single point]"
same,activation,[9],inconclusive: -11.2%
same,Potency,[10],"inconclusive: 4.9 µM [rising, partial curve]"
C[C@]12Cc3nonc3C[C@@H]1CC[C@@H]1[C@@H]2CC[C@@]2(C)[C@H]1CC[C@]2(C)O,Potency,[1],inconclusive: 26.8 µM
same,Potency,[11],active: 0.0038 µM
same,Potency,[4],active: 29.8 µM
same,activation,[6]; [19],inconclusive: -7.43% [phenotype inactive]
same,Potency,[12],"inconclusive: 16.9 µM [fluorescent, partial curve, poor fit]"
same,Potency,[18],"inconclusive: 8.48 µM [activator, partial curve]"
same,Potency,[13],"inconclusive: 33.5 µM [inhibitor, single point]"
same,Potency,[14],active: 29.8 µM
same,Potency,Aromatase (Homo sapiens),"inconclusive: 29.8 µM [inhibitor, partial curve]"
same,Potency,[9],"inconclusive: 23.9 µM [rising, single point]"
same,"ratio activity, negative = inhibition",[10],inconclusive: 5.59%
Oc1cc(Cl)c(Cl)c(Cl)c1,Potency,[1],"inconclusive: 11.7 µM [rising, full curve]"
same,Potency,[11],"inconclusive: 1.04 µM [activator, single point]"
same,Potency,[3],"inconclusive: 25.9 µM [inhibitor, single point]"
same,Potency,[4],"inconclusive: 25.9 µM [cytotoxic, single point]"
same,Potency,[12],"inconclusive: 18.5 µM [rising, full curve]"
same,Potency,[7],"inconclusive: 10.4 µM [cytotoxic, full curve, poor fit]"
same,Potency,[13],"inconclusive: 65 µM [inhibitor, single point]"
same,Potency,Aromatase (Homo sapiens),"inconclusive: 65 µM [inhibitor, single point]"
same,Potency,[8],"inconclusive: 51.7 µM [cytotoxic, partial curve]"
same,Potency,[9],"inconclusive: 52.1 µM [rising, single point]"
same,Potency,[10],"inconclusive: 41.4 µM [fluorescent, partial curve]"
